Experimental data taken from PubChem BioAssay AID1671193 (National Center for Advancing Translational Sciences (NCATS), 2021).
Several values for one entry are separate records, joined by “and”; a condition that tells them apart may be missing. Identical values can stand only once. Out of some 150,000 compounds screened, about 180 (0.12%) were called active. Inconclusive results, whose numbers are uncertain, are shown with a selection of clear calls. Calls come from the whole dose curve; as a rule, active = well fitted cell-killing curve with a large enough effect; inconclusive = small, poorly fitted or top-dose-only effect, or effect the other way; inactive = flat fitted curve, though single readings scatter. A potency beside an inconclusive call is a rough fit, not a confirmed value.

assay: GF-AFC viability counterscreen for inhibitors of alpha-synuclein gene (SNCA) expression; details: HEK-293-SNCA-luc viability, GF-AFC fluorescence, 24 h; activity change, negative = cytotoxicity: at 57.1 µM (top of the series) unless noted; note: nearly all actives have a fitted effect of over 30% in size;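 for activity change, negative = cytotoxicity: 0% = DMSO-treated cells and -100% = medium-only wells without cells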
Outline: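 HEK-293-SNCA-luc cells (1500/well) plated 24 h, then exposed 24 h to a dilution series; GF-AFC added 30 min at 37C, fluorescence 405/540 nm; normalised to medium-only and DMSO wells, Hill fit.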
Potency is the fitted concentration of half-maximal effect; tags give direction and shape of the fitted curve.

SMILES	activity change, negative = cytotoxicity	Potency
Cc1ccc(-c2nc(C(=O)N3CCN(c4ccccc4C)CC3)no2)cc1	inactive: 7.31%	–
N#Cc1cccc(CN2CCOC[C@H]2c2ncc(-c3ccc(Cl)cc3)[nH]2)c1	–	inconclusive: 31.6 µM [cytotoxic, single point]
O=C(NC[C@H](O)CN1CCc2ccccc2C1)c1cc(NC2COC2)ncn1	–	inconclusive: 9.59 µM [cytotoxic, full curve]
COc1ccc(OCc2nc3c(n2Cc2ccccc2)C(=O)N(Cc2ccccc2C#N)CCN3)cc1OC	–	inconclusive: 8.91 µM [cytotoxic, partial curve]
CCNc1ncc2ncc(=O)n(Cc3cccc(OC)c3)c2n1	–	inconclusive: 14.1 µM [cytotoxic, partial curve, poor fit]
CN(C)C(=O)c1ccc(-c2ccccc2S(=O)(=O)NC(C)(C)C)s1	inactive: -6.47%	–
CCCN1C(=O)c2[nH]nc(-c3ccccc3O)c2C1c1ccc(OCc2ccccc2)c(OC)c1 (stereo unspecified)	–	inconclusive: 28.2 µM [cytotoxic, single point]
Cc1ccc(CNC(=O)c2c(C)noc2-c2ccc3c(c2)OCO3)o1	inactive: 5.79%	–
COc1cccc(Nc2ncc3ncc(=O)n(C4CC4)c3n2)c1	–	inconclusive: 12.6 µM [cytotoxic, partial curve, poor fit]
Cc1ccccc1OCCSc1nc2ccc(NC(=O)c3ccccc3)cc2s1	inconclusive: 35.8%	–
Cc1nc(-c2cccc(NC(=O)Nc3ccc([N+](=O)[O-])cc3)c2)no1	–	inconclusive: 35.5 µM [cytotoxic, single point]
CCn1c(C(=O)NCc2ccccc2C)cc2oc3ccccc3c21	–	inconclusive: 7.08 µM [cytotoxic, single point]
CCCc1cc(=O)oc2c3c(ccc12)OCN(Cc1ccc(OC)cc1)C3	–	inconclusive: 31.6 µM [rising, single point]
O=C(Nc1ncc(-c2cccc(F)c2)c2c1OCC2)c1ccc(Cl)cc1	inactive: -1.65% [at 87.6 µM]	–
CC(C)C[C@@H]1NC(=O)[C@@H](Cc2ccccc2)NC(=O)C(CCCCCC(=O)C2CO2)NC(=O)[C@@H]2CCCCN2C1=O (stereo partly specified)	–	inconclusive: 1.46 µM [cytotoxic, full curve, poor fit]
COCCN1CCOC[C@H]2CCN(C(=O)c3ccoc3)C[C@H]21	–	inconclusive: 39.8 µM [cytotoxic, single point]
CC(C)NC(=O)c1ccnc(-c2nnc3ccc(Nc4ccccc4)nn23)c1	inactive: 6.38% [at 87.6 µM]	–
CCCCc1nn2c(=O)cc(COC(=O)c3ccc(NC(=O)c4ccccc4C)cc3)nc2s1	–	inconclusive: 39.8 µM [cytotoxic, single point]
CC(C)NC(=O)CN1C(=O)NC2(CCC(C(C)(C)C)CC2)C1=O (stereo unspecified)	inactive: -0.217%	–
COc1ccc(C(=O)N2C[C@@H](Oc3cccnc3)C[C@H]2C(=O)N2CCOCC2)cc1	–	inconclusive: 7.08 µM [cytotoxic, full curve, poor fit]
COc1ccc(-n2ncc(C(=O)NCCc3ccsc3)c2C2CCN(C(=O)OC(C)(C)C)CC2)cc1	–	inconclusive: 39.8 µM [cytotoxic, single point]

SMILES	activity change, negative = cytotoxicity	Potency
COc1ccc(Nc2cc(C(=O)NCCCN3CCN(c4ccc(OC)cc4)CC3)c3ccccc3n2)cc1	–	inconclusive: 39.8 µM [cytotoxic, single point]
Cc1ccc(CN2C(=O)[C@@H]3C[C@@H](O)CN3C3(CN(C4CCC4)C3)C2=O)o1	inactive: -5.21% [at 87.6 µM]	–
Cc1ccc(S(=O)(=O)c2ccc([N+](=O)[O-])o2)cc1	–	active: 9.47 µM
CC1=C[C@@H](CNC(=O)C(C)C)[C@H](C(C)C)C[C@H]1Cc1nc2ncccc2[nH]1	–	inconclusive: 20 µM [cytotoxic, partial curve, poor fit]
O=C(CCCn1cncn1)NC1CC(c2cc(=O)[nH]c(C3CC3)n2)C1 (stereo unspecified)	–	inconclusive: 25.1 µM [cytotoxic, partial curve, poor fit]
Cc1ccc(-c2cc(N3CCCN(C(=O)c4cccc(N(C)C)c4)CC3)n[nH]2)cc1C	–	active: 17.8 µM
CC(C)c1ccc(CN2CCC3(CC2)COCCN3C(=O)OCc2ccccc2)cc1	–	inconclusive: 35.5 µM [cytotoxic, single point]
CN(C)C/C=C/C(=O)Nc1ccc(C(=O)Nc2cccc(Nc3ncc(Cl)c(-c4c[nH]c5ccccc45)n3)c2)cc1	–	inconclusive: 10.6 µM [cytotoxic, partial curve, poor fit] and inconclusive: 170 nM [cytotoxic, full curve, poor fit]
O=C1NC(=O)C(c2cnc3ccccn23)=C1c1cn2c3c(cc(F)cc13)CN(C(=O)N1CCCCC1)CC2	–	inconclusive: 11.9 µM [cytotoxic, partial curve] and inconclusive: 27 µM [cytotoxic, partial curve]
C=CCOC(=O)C1=C(C)N(Cc2ccc(Br)cc2)C(=O)CC1c1ccccc1Cl (stereo unspecified)	–	inconclusive: 3.98 µM [cytotoxic, single point]
CCc1ccccc1NC(=O)c1sc2nc3c(cc2c1N)CN(Cc1ccccc1)CC3	–	inconclusive: 39.8 µM [cytotoxic, single point]
Cc1cccc(CN2CCCn3nc(C)c(-c4ccccc4-c4ccccc4)c32)n1	–	inconclusive: 11.2 µM [cytotoxic, full curve, poor fit]
CNC(=O)C1(N2CCC[C@H]2C(=O)N2CCC(C)CC2)CCCCC1	–	inconclusive: 31.6 µM [cytotoxic, partial curve, poor fit]
O=C(c1cccc(F)c1)N1CCC2(CC1)CN(c1ccccn1)C2	–	inconclusive: 3.16 µM [cytotoxic, partial curve, poor fit]
Cn1cc(C(=O)N2CCCC(c3nnnn3C)C2)cn1 (stereo unspecified)	inactive: 6.4%	–
CCOC(=O)N1CCc2c(sc(NCc3sccc3C)c2C(=O)Nc2ccc(OC)cc2OC)C1	inactive: 3.34%	–
COc1ccc(CC(=O)N2C[C@@H](CO)[C@H](c3ccccn3)C2)cc1OC	inconclusive: -47.8%	–
CC(=O)Nc1ccc(C(=O)NC2CCN(c3cc(-c4ccc(Cl)cc4)[nH]n3)CC2)cc1	–	inconclusive: 25.1 µM [cytotoxic, single point]
CC(C)(C)OC(=O)N1CCC(c2c(C(=O)NCCN3CCc4ccccc4C3)cnn2-c2ccc(F)cc2F)CC1	–	inconclusive: 39.8 µM [cytotoxic, single point]
CCOc1ccc(N2CC(c3nc4ccccc4n3CCCOc3ccccc3)CC2=O)cc1 (stereo unspecified)	–	inconclusive: 39.8 µM [cytotoxic, single point]
COc1ccc(-n2c(=O)c(-c3cc(F)cc(F)c3)nc3cnc(N4CCOCC4)nc32)cc1	–	inconclusive: 3.16 µM [rising, full curve]

SMILES	activity change, negative = cytotoxicity	Potency
Cc1nc(-c2cccc(Cl)c2)n(CC(=O)NCCCc2ccccc2)c(=O)c1CCO	–	inconclusive: 28.2 µM [cytotoxic, partial curve, poor fit]
O=C(CCc1ccc(O)cc1)N[C@H]1CC[C@H](Nc2nccc(-c3cccnc3)n2)C1	inactive: -8.34%	–
COc1ccc(C(=O)N2C[C@@H]3OCC(=O)N(Cc4cccnc4)[C@@H]3C2)cc1	–	inconclusive: 28.2 µM [cytotoxic, partial curve, poor fit]
COC(=O)[C@@H]1Cc2c([nH]c3ccccc23)[C@H]2C[C@H](NCCCn3ccnc3)C[C@@H](c3ccccc3F)N21	–	inconclusive: 39.8 µM [cytotoxic, single point]
O=c1c(-c2ccccc2)nc2cncnc2n1Cc1ccccc1Cl	–	inconclusive: 12.6 µM [cytotoxic, partial curve, poor fit]
COc1ccc(NC(=O)c2c(-c3cnn(C)c3NCc3ccccc3)noc2C)cc1	–	inconclusive: 15.8 µM [cytotoxic, partial curve]
O=C(c1ccc2c(c1)N(Cc1cccc(F)c1)C(=O)c1ccccc1S2)N1CCOCC1	–	inconclusive: 28.2 µM [cytotoxic, single point]
O=C(CC(c1cccc([N+](=O)[O-])c1)c1c[nH]c2ccccc12)NCCc1ccccc1 (stereo unspecified)	–	inconclusive: 5.62 µM [cytotoxic, full curve, poor fit]
CN1CCC(Cc2ccc(C(=O)NCC3CCCCC3)cc2)CC1	inactive: -12.2%	–
CO[C@H]1C(=O)N(C(C)C)[C@H]1C1CCN(C(=O)C2CC2)CC1	inactive: 6.88%	–
Cc1nc2c(C(F)(F)F)cccc2nc1-c1ccc(-c2cccc(S(C)(=O)=O)c2)cc1	–	inconclusive: 37.7 µM [rising, single point]
O=C(NC1CC1)[C@@H]1C[C@H](Oc2ccccc2)CN1C(=O)c1cccnc1	–	inconclusive: 20 µM [cytotoxic, partial curve]
CCN1CCN(C(=O)c2ccc3nnc(-c4ccccc4OC)n3c2)CC1	inactive: 3.9%	–
O=C(Nc1ccc2nc(SCC(=O)N3CCOCC3)sc2c1)c1cccc(Cl)c1	–	inconclusive: 39.8 µM [cytotoxic, single point]
C[C@@H](NCCCc1cccc(C(F)(F)F)c1)c1cccc2ccccc12	–	inconclusive: 1.08 µM [cytotoxic, full curve]
COCC(=O)NCCNC(=O)c1cccc(-c2ccsc2)c1	–	inconclusive: 1 µM [cytotoxic, partial curve, poor fit]
Cc1ccc(-c2ccc3nnc(CNC(=O)c4ccccc4)n3n2)cc1C	inactive: -0.342%	–
CCNc1ncc2nc(-c3ccc(Cl)cc3)c(=O)n(Cc3cccc(OC)c3)c2n1	–	inconclusive: 39.8 µM [rising, single point]
COc1ccc(CN2CC3(CCN(C(=O)c4cc(-c5ccc(F)cc5)n[nH]4)CC3)C2=O)cc1	inactive: -1.75%	–
